Assay [1] deals with Flag-tagged TRIM22 (human) (UniProt Q8IYM9). Nature of the assay: co-IP; HEK293T cells co-transfected with Flag-TRIM22 (or truncation mutants) and His-tagged partner (or truncation mutants); lysates incubated with antibody overnight, Protein A/G agarose beads; blots with anti-Flag and anti-His.
Assay [2] addresses endogenous MAVS (human (endogenous in A549, BEAS-2B, HEK293T)) (UniProt Q7Z434). Nature of the assay: co-IP.
For assay [3] the target is unchanged. Put plainly: co-IP; endogenous NLRX1 and MAVS from A549 cells overexpressing TRIM22 or vector, and from HEK293T cells transfected with increasing amounts of Flag-TRIM22 or with its Del-RING and Del-PRY/SPRY mutants; Protein A/G agarose beads.
The target in assay [4] is endogenous TRIM22 (human (endogenous in A549)) (UniProt Q8IYM9). Nature of the assay: co-IP.

By UniProt entry, the sequences of proteins in these tests, tags left out. Where a name states a change or a piece, a line headed by the entry shows the natural chain unless it says otherwise. Residues count along the entry.
UniProt Q8IYM9: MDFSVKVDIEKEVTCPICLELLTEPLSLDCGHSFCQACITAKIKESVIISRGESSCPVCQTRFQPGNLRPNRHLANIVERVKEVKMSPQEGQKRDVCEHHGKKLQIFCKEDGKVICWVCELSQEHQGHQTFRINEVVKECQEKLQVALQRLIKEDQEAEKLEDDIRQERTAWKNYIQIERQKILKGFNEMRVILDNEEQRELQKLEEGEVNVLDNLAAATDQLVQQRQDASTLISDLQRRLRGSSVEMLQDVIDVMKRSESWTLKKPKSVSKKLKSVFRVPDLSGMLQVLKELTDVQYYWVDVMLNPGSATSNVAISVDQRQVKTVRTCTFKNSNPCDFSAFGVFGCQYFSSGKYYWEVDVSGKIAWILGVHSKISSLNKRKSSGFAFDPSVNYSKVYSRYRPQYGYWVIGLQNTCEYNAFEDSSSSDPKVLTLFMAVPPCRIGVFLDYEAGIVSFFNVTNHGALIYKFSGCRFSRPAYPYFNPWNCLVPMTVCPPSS
UniProt Q7Z434: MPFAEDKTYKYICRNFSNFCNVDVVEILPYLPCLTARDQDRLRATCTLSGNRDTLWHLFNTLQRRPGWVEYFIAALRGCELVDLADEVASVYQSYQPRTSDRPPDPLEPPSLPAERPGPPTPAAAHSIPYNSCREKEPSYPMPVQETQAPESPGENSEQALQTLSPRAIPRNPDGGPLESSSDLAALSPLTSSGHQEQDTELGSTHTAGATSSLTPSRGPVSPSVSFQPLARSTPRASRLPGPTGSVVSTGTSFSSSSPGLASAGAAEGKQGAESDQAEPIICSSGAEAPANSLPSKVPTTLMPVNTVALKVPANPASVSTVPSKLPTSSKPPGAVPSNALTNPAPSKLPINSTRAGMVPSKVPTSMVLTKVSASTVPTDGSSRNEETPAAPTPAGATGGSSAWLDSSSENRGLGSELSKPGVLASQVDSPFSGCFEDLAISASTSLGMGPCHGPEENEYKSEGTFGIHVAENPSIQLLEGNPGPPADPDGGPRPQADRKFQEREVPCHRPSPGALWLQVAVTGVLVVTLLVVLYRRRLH
UniProt Q86UT6, residues 87-975: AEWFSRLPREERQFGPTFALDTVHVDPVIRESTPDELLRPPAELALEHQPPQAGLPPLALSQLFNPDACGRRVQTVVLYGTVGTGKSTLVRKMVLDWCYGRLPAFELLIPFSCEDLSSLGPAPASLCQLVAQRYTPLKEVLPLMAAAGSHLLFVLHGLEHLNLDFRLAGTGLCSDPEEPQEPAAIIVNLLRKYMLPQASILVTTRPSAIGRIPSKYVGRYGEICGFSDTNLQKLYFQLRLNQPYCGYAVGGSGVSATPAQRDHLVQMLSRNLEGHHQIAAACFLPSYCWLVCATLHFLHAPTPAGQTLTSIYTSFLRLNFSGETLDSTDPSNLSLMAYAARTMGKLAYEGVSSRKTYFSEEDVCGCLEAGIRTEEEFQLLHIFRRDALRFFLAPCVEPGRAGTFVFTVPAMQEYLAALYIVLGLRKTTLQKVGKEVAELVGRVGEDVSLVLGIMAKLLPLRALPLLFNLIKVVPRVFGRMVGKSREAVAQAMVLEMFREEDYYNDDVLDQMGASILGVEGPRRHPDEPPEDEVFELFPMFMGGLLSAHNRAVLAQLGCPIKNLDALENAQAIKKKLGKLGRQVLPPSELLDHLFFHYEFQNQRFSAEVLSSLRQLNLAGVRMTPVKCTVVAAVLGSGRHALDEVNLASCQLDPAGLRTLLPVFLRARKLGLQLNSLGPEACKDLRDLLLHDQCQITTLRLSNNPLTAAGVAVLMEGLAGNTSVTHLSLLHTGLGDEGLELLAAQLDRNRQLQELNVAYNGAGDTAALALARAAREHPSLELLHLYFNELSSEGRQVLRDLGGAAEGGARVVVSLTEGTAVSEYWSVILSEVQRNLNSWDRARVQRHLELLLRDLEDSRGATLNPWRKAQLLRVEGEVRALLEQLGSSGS

These are yes or no findings as the source states them, for the method shown. In cells and extracts the contact can be indirect. Some entries that bind do so weakly or less than the wild type. For part of these data: Where a sequence is shown, tags or fusion partners need not be part of it.

Consider “His-tagged MAVS (from UniProt Q7Z434-1 1-540)”, for which, in assay [1], the binding result is “binds”. With “endogenous NLRX1 (from UniProt Q86UT6 87-975)”, the binding entry in assay [2] and in assay [3] was “binds” throughout. With “endogenous MAVS (from UniProt Q7Z434 1-540)”, the binding entry in assay [4] is listed as “binds”.

B1: His-tagged TBK1 (protein, UniProt Q9UHD2 1-729)
chain: MQSTSNHLWLLSDILGQGATANVFRGRHKKTGDLFAIKVFNNISFLRPVDVQMREFEVLKKLNHKNIVKLFAIEEETTTRHKVLIMEFCPCGSLYTVLEEPSNAYGLPESEFLIVLRDVVGGMNHLRENGIVHRDIKPGNIMRVIGEDGQSVYKLTDFGAARELEDDEQFVSLYGTEEYLHPDMYERAVLRKDHQKKYGATVDLWSIGVTFYHAATGSLPFRPFEGPRRNKEVMYKIITGKPSGAISGVQKAENGPIDWSGDMPVSCSLSRGLQVLLTPVLANILEADQEKCWGFDQFFAETSDILHRMVIHVFSLQQMTAHKIYIHSYNTATIFHELVYKQTKIISSNQELIYEGRRLVLEPGRLAQHFPKTTEENPIFVVSREPLNTIGLIYEKISLPKVHPRYDLDGDASMAKAITGVVCYACRIASTLLLYQELMRKGIRWLIELIKDDYNETVHKKTEVVITLDFCIRNIEKTVKVYEKLMKINLEAAELGEISDIHTKLLRLSSSQGTIETSLQDIDSRLSPGGSLADAWAHQEGTHPKDRNVEKLQVLLNCMTEIYYQFKKDKAERRLAYNEEQIHKFDKQKLYYHATKAMTHFTDECVKKYEAFLNKSEEWIRKMLHLRKQLLSLTNQCFDIEEEVSKYQEYTNELQETLPQKMFTASSGIKHTMTPIYPSSNTLVEMTLGMKKLKEEMEGVVKELAENNHILERFGSLTMDGGLRNVDCL
For the molecule B1, in assay [1], the binding result is “no binding”.

B2: His-tagged IRF3 (protein, UniProt Q14653 1-427)
chain: MGTPKPRILPWLVSQLDLGQLEGVAWVNKSRTRFRIPWKHGLRQDAQQEDFGIFQAWAEATGAYVPGRDKPDLPTWKRNFRSALNRKEGLRLAEDRSKDPHDPHKIYEFVNSGVGDFSQPDTSPDTNGGGSTSDTQEDILDELLGNMVLAPLPDPGPPSLAVAPEPCPQPLRSPSLDNPTPFPNLGPSENPLKRLLVPGEEWEFEVTAFYRGRQVFQQTISCPEGLRLVGSEVGDRTLPGWPVTLPDPGMSLTDRGVMSYVRHVLSCLGGGLALWRAGQWLWAQRLGHCHTYWAVSEELLPNSGHGPDGEVPKDKEGGVFDLGPFIVDLITFTEGSGRSPRYALWFCVGESWPQDQPWTKRLVMVKVVPTCLRALVEMARVGGASSLENTVDLHISNSHPLSLTSDQYKAYLQDLVEGMDFQGPGES
As for B2, the binding entry in assay [1] was “no binding”.

(Values after paper PMC12090806.)
